# Test results: paper PMC4336329 (PLoS ONE, 2015)
# Among all 310,000 compounds or so, about 14,000 (4.5%) showed an effect of 50% or more. The effect is printed as a negative number. The list shows a part of the results.
# Target: human ether-à-go-go-related gene (hERG) potassium channel (human, UniProt Q12809)
# Experiment: primary screen, population patch clamp on CHO cells stably expressing hERG
# 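Also: peak tail current of the secondary pulse compared with the same well before compound.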
# human ether-à-go-go-related gene (hERG) potassium channel, sequence (Q12809 whole entry, looked up): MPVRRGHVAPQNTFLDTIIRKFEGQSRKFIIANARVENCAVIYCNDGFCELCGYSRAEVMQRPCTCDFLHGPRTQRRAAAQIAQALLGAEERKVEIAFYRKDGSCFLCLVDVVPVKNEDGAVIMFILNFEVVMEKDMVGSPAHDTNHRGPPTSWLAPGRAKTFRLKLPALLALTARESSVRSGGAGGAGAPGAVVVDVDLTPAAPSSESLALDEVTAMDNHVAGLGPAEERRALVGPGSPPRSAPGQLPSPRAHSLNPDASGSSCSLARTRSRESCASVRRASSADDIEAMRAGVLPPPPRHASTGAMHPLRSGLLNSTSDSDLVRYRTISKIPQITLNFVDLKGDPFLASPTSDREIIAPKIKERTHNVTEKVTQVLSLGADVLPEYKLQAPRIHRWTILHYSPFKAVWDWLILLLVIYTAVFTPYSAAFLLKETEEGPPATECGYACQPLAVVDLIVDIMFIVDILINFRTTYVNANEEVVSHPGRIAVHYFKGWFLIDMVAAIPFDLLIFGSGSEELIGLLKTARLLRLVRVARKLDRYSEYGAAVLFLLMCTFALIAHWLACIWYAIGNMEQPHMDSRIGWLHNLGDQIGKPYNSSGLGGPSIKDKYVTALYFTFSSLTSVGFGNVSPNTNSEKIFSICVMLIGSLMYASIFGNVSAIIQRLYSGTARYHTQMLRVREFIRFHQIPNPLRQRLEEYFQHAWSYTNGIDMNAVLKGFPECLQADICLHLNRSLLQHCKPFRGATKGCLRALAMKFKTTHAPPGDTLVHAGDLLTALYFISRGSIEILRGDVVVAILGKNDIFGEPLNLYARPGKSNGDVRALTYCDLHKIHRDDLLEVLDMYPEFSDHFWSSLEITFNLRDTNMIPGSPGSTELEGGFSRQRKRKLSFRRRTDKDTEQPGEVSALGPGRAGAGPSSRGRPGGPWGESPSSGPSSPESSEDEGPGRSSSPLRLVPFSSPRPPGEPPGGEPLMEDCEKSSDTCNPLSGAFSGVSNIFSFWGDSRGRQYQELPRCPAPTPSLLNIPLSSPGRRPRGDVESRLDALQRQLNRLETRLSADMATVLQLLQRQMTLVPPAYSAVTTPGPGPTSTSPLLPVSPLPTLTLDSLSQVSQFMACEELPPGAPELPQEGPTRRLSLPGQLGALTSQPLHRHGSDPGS
row,SMILES,"hERG current change (%, negative = inhibition) at 10uM [%]"
1,N#Cc1cccc(C(=O)Nc2cccc(S(=O)(=O)N3CCCC3)c2)c1,2.83
2,O=S(=O)(Nc1ccc(S(=O)(=O)Nc2cccc3ccccc23)cc1)c1ccccc1,-16.7
3,Cc1cc(NC(=O)c2cnn3cccnc23)nn1CC(=O)Nc1cccnc1,-3.28
4,O=C(NC(=S)NNC(=O)c1ccccc1[N+](=O)[O-])c1ccc(Br)cc1,7.59
5,CCOC(=O)c1ccc(NC(=S)NCCCN2CCN(C3CCCCC3)CC2)cc1,-53.7
6,Cc1ccc(S(=O)(=O)N[C@@H](CC(C)C)C(=O)N2CCC(C(=O)N[C@@H](Cc3ccccc3)C(=O)O)CC2)cc1,16
7,Cc1onc(-c2ccccc2Cl)c1C(=O)NC(=S)Nc1ccccc1C(N)=O,15.7
8,S=C1CCC(c2ccc(Br)cc2)=NN1c1ccccc1,6.63
9,O=C(Nc1ccc(Cl)cc1)N(CCCN1CCOCC1)Cc1cccs1,-70.7
10,CCCCn1c(N)c(N(CCOC)C(=O)CSc2ccc([N+](=O)[O-])cc2)c(=O)[nH]c1=O,-22.7
11,Cc1ccc(C)c(NC(=O)c2cc(-c3cc(C)c(C)cc3O)n[nH]2)c1,11.6
12,O=C(NC1CCCCC1)C(=O)c1c[nH]c2ccccc12,3.23
13,COC(=O)c1ccc(NC(=O)CSc2nnc(C)n2-c2ccccc2)cc1,-2.35
14,O=C(COc1ccccc1)Nc1ccccc1N1CCCCC1,2.27
15,c1coc(-c2ncc[nH]2)c1,12.9
16,CC(=O)c1ccc(N2CCN(CC(=O)N(C3CC3)C3CCS(=O)(=O)C3)CC2)c(F)c1 (stereo not shown),-12
17,O=C1c2ccccc2C(O)N1c1cccnc1 (stereo not shown),16.5
18,Cc1ccc(OCc2csc(N)n2)cc1,-0.946
19,Cc1cccc(NC(=O)NNC(=O)c2nn(C)cc2Br)c1,-7.1
20,COc1cc2c(ccc3cc(OC)c(OC)c(O)c32)cc1O,13.4
21,CC(C)(C)NC(=O)c1ccc(NC(=O)CSc2ccccc2)cc1,8.17
22,CC1=NN(Cc2ccccc2)C(=O)C1C(c1ccc(Cl)cc1)C(C#N)C#N (stereo not shown),20.5

row,SMILES,"hERG current change (%, negative = inhibition) at 10uM [%]"
1,O=C(O)c1cccc(N/N=C/c2ccc(OC(F)(F)F)cc2)c1,15.5
2,CCCCn1c(C)cc(/C=C(\C#N)C(=O)O)c1C,-80
3,Cc1occc1C(=O)Nc1cc(=O)n(C)c(=O)n1C,13.2
4,O=C(Cc1ccccc1)c1c[nH]c(C(=O)NCc2ccncc2)c1,7.06
5,CCn1c(SCC(=O)N/N=C/c2ccccc2OCC(=O)O)nnc1-c1ccc(C(C)(C)C)cc1,12.5
6,CC(C)c1ccc(NC(=O)N2CCC(c3nc4ccccc4o3)CC2)cc1,-30.7
7,CC(C)NC(=O)C(Sc1ccccc1)c1ccccc1 (stereo not shown),11.3
8,COc1ncnc2c1N[C@@](C)(O)c1c(F)c(F)c(F)c(F)c1S2,10.8
9,CN1CCN(CC(O)(c2ccc(Cl)cc2)c2ccc(Cl)cc2)CC1,-73.3
10,COc1ccc(NC(=O)CSCC(=O)Nc2ccc(S(=O)(=O)N3CCCCC3)cc2)cc1,-35.7
11,N#CC(=C1CCCC1)c1nc(-c2ccccc2)cs1,1.02
12,COc1ccc(N2CCN(CCNC(=O)CCC(=O)NNc3nc4ccccc4c4nc(C)nn34)CC2)cc1,4.9
13,Cc1cccc(OCC(=O)N2CCc3ccccc3C2)c1,0.0245
14,Cc1cc(NC(=O)CC2CCCC2)n(-c2nc3ccccc3[nH]2)n1,-9.55
15,C=CCN1CC2CC3(COc4cc(C)cc(C)c4)C=CC2(O3)C1=O (stereo not shown),1.91
16,CC(=O)Nc1ccc(/C=C/C(=O)c2ccccc2)cc1,9.09
17,CC1COc2ccccc2N1C(=O)c1cccnc1Cl (stereo not shown),15.1
18,CCN1CCN(c2c(Cl)cccc2NC(=O)c2ccc([N+](=O)[O-])cc2)CC1,-72
19,c1ccc(OCc2nn3c(-c4ccccn4)nnc3s2)cc1,-9.49
20,COc1ccc(-c2nc(NC(=O)C3=NN(c4cccc(C)c4)C(=O)CC3)sc2C)cc1,0.982
21,O=C(/C=C/NNC(=O)c1ccccc1)c1ccc([N+](=O)[O-])cc1,4.38
22,COc1ccc(NC(=S)NCCSc2ccc(C)cc2)c(OC)c1,5.2

row,SMILES,"hERG current change (%, negative = inhibition) at 10uM [%]"
1,Cc1ccc(OCc2cc(C(=O)NC3CCc4ccccc43)no2)cn1 (stereo not shown),-10.4
2,CCOc1ccc(S(=O)(=O)Nc2ccc(C(=O)N(C)CC(=O)Nc3ccc(OC)cc3)cc2)cc1,14.2
3,O=C1NC(c2ccc(Br)cc2)Nc2ccccc21 (stereo not shown),-8.81
4,COc1ccc(CCn2c(O)c(C=NCc3cccnc3)c(=O)[nH]c2=O)cc1OC,3.63
5,COC(=O)[C@H]1C[C@@H]1[C@H](NS(=O)(=O)c1ccc2ccccc2c1)c1ccccc1,6.23
6,Cc1cccc(NC(=S)N(C)C)c1C,-6.21
7,O=C(COc1ccccc1)Nc1cccc(-c2cn3cccnc3n2)c1,-23.5
8,Cc1ccccc1C(=O)Nc1ccnn1C1CCN(C(=O)C2CCOC2)CC1 (stereo not shown),9.33
9,C#CCn1cc(/C=N/NC(=O)COc2cccc3cccnc23)c2ccccc21,21.1
10,Nn1c(SCC(=O)NC(=O)NCc2ccco2)nnc1-c1ccc(OC(F)F)cc1,-45
11,Cc1cc(C)c(S(=O)(=O)NCc2ccc3c(c2)OCO3)c(C)c1,16.3
12,Cc1cc(=O)[nH]c(SCc2cccc3cccnc23)n1,13.3
13,Cc1ccc(SCCC(=O)Nc2ccc(Br)c(C)c2)cc1,7.7
14,COc1ccc(N=CC2=C(O)c3ccccc3C2=O)c(OC)c1,-7.43
15,CC1=C(C(=O)OCC2CCCO2)C(c2ccsc2)C2=C(CCCC2=O)N1 (stereo not shown),-9.68
16,COCc1cc(=O)[nH]c(/N=C(\N)Nc2c(F)cccc2F)n1,1.97
17,COc1ccc(CNC(=O)/C(C#N)=C/c2cccc(OC)c2OC)cc1,-11.6
18,O=C(COC(=O)C1CCCC1)Nc1ncc(Cl)cc1Cl,5.91
19,O=C(N/C(=C/c1ccccc1)C(=O)N1CCCCCC1)c1ccccc1,-12.4
20,COc1ccc(NC(=O)COC(=O)C2CCC2)cc1Cl,13.2
21,O=C(Nc1ccccc1)N(C1=NCCC1)c1ccccc1,-5.01
22,COc1ccc(C(CNC(=O)Cn2[nH]c(=O)c3ccccc3c2=O)N2CCCC2)cc1 (stereo not shown),-0.499

row,SMILES,"hERG current change (%, negative = inhibition) at 10uM [%]"
1,O=C(CN1CCN(c2ccccc2O)CC1)Nc1ccnn1C1CCCC1,3.74
2,Cc1cc(NC(=O)c2cccc(S(=O)(=O)N3CCOCC3)c2)no1,11.1
3,Nc1nonc1-n1nnc(C(=O)N/N=C/c2ccc(F)cc2)c1-c1cccs1,15.2
4,CCc1ccc(S(=O)(=O)NC(CC(=O)O)c2ccccc2)cc1 (stereo not shown),-6.2
5,CN(C)NC(=S)Nc1ccc(S(=O)(=O)N2CCCCC2)cc1,-5.26
6,O=C(CN1C(=O)c2ccccc2S1(=O)=O)NCCSC1CCCCC1,-24.7
7,CCC(=O)N1CCc2cc(S(=O)(=O)NCCCN(CC)Cc3ccccc3)ccc21,-3.81
8,COc1ccc(OC)c(NC(=O)c2cccc3c2C(=O)N(C2CCCCC2)C3)c1,-0.53
9,O=C(CN1C(=O)CSc2ccc(S(=O)(=O)N3CCOCC3)cc21)NCc1ccc(F)cc1,-27.6
10,COc1ccc(NC(=O)c2cccnc2N2CCOCC2)cc1,50.5
11,COc1ccc(NC(=O)CCNC(=O)Cn2ccc3ccccc3c2=O)cc1Cl,18.1
12,CC(OC(=O)Cn1cnc2c1c(=O)n(C)c(=O)n2C)C(=O)Nc1ccc(Cl)cc1 (stereo not shown),-36.6
13,CCc1cc(C(=O)Cc2nc3ccccc3s2)c(O)cc1OCC(=O)O,12.1
14,COc1ccccc1Nc1nnc(SCC(=O)NC2CC2)s1,-8.45
15,COc1ccc(OC)c(C(c2nnnn2CCC(C)C)N2CCN(C(=O)c3ccco3)CC2)c1 (stereo not shown),-42.2
16,CCc1nc2ccccc2n1CC(=O)N1CCN(S(=O)(=O)c2cccc(C(F)(F)F)c2)CC1,-47.3
17,CCOc1ccc(NC(=O)c2ccc(NC(=O)c3ccc(CN4CCOCC4)cc3)cc2)cc1,9.33
18,Cc1cccc(C(=O)NCc2nnc(SCC(=O)Nc3nncs3)n2C)c1,-5.67
19,CC1CCCN(C(=O)CSCC(=O)N=c2sc3ccccc3n2C)C1 (stereo not shown),-9.28
20,CC(C)CC(=O)c1c[nH]c(C(=O)NCc2ccccc2)c1,12.8
21,CCCCCNC(=O)N[C@H](C(=O)O)C(C)C,-2.69
22,Cc1cc(C)c(C)c(S(=O)(=O)N2CCN(C(=O)CCc3nc4ccccc4c(=O)[nH]3)CC2)c1C,-7.74
